Here are results for one molecule from patent US20100047166A1, “ANTIBODIES AND RELATED MOLECULES THAT BIND TO 58P1D12 PROTEINS” (priority 2008, published 2010).

For one assay, the system named is OVCAR-5/58P1D12 cells. Kind of assay: Boyden Transwell/Matrigel tumor cell invasion assay. The format is cell-based, Human. Particulars: 25 μg/mL MAb, Matrigel, 24 hours. On the procedure: FIG. 6. […] Human ovarian cancer cell line OVCAR-5 was transduced with retroviruses (empty vector [Neo] or 58P1D12). Boyden Transwell chambers were coated with a layer of Matrigel® for the cells to invade. […] The cells were allowed to invade for 24 hours toward 10% FBS loaded into the lower chamber. Cells binding to the bottom filter were labeled with Calcein AM dye for 30 minutes and photographed.
Tumor cell invasion was evaluated using the Boyden Transwell chamber coated with a layer of Matrigel® for the cells to invade. Briefly, 58P1D12 MAb or isotype matched control MAb (25 μg/mL) were added to 4×10^4 OVCAR-5/58P1D12 cells in 0.1% FBS into the upper chamber of the apparatus coated with Matrigel®. The cells were allowed to invade for 24 hours toward 10% FBS loaded into the lower chamber. Cells binding to the bottom filter were labeled with Calcein AM dye for 30 minutes and photographed.
In this assay, the Boyden Transwell chamber is coated with a layer of Matrigel® for the cells to invade. […] The cells were allowed to invade for 24 hours toward 10% FBS loaded into the lower chamber. Cells binding to the bottom filter were labeled with Calcein AM dye for 30 minutes and photographed.

The target in assay [1] is T1, 58P1D12 expressed on 3T3 cells (Homo sapiens, UniProt Q9H9P2).
T1 construct: expressed in transfected cells; host or cells: 3T3 cells (3T3-58P1D12); retroviral pSRα transduction is described only in general terms
T1 sequence (Q9H9P2 22-273): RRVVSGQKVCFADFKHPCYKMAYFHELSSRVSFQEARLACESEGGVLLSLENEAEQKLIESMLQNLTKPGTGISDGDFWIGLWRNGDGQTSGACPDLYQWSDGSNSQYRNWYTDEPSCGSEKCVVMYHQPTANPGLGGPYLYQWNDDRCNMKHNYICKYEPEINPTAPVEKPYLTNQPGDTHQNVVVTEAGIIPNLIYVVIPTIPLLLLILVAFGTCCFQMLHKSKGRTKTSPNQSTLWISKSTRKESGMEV
Kind of assay: Affinity determination by FACS. The format is binding. As for the experimental part:
At the end of the incubation, cells were washed and incubated with anti-hIgG-PE detection antibody for 45 min at 4° C. After washing the unbound detection antibodies, the cells were analyzed by FACS. Mean Florescence Intensity (MFI) values were obtained as listed in (Table VI(A)).

Assay [2] has as its system Ovcar5-58P1D12 tumors. Kind of assay: Survival of mice bearing i.p. established Ovcar5-58P1D12 tumors. The format is in vivo, SCID mice. On the procedure: FIG. 15. […] Ovcar5-58P1D12 tumor cells (2.0×10^6 cells) were injected into the peritoneum of female SCID mice on Day 0. […] Animals were treated twice weekly with antibody for as long as they survived. The health and survival of the mice was monitored and recorded every few days.
Ovarian tumors often metastasize and grow within the peritoneal cavity. Accordingly, intraperitoneal growth of ovarian tumors in mice are performed by injection of 2 million cells directly into the peritoneum of female mice. Mice are monitored for general health, physical activity, and appearance until they become moribund. At the time of sacrifice, the peritoneal cavity can be examined to determine tumor burden and lungs harvested to evaluate metastasis to distant sites. Alternatively, death can be used as an endpoint. The mice are then segregated into groups for the appropriate treatments, with 58P1D12 or control MAbs being injected i.p.
In another experiment, Ovcar5-58P1D12 tumor cells (2.0×10^6 cells) were injected into the peritoneum of female SCID mice on Day 0. […] Animals were treated twice weekly with antibody for as long as they survived. The health and survival of the mice was monitored and recorded over several days during the study.

Assay [3] has as its system Ovcar5-58P1D12 tumors. Kind of assay: Ovcar5-58P1D12 ovarian tumors grown in mouse tibiae. Format: in vivo, SCID mice. Particulars: Day 42; 500 μg i.p. twice weekly, 12 doses; vs control antibody, p=0.0002. From the text:
FIG. 14. […] Ovcar5-58P1D12 expressing tumor cells (2.0×10^6 cells) were implanted into the right tibiae of female SCID mice.
Tumor growth is monitored using calipers.
In this experiment, Ovcar5-58P1D12 expressing tumor cells (2.0×10^6 cells) were implanted into the right tibiae of female SCID mice.

For assay [4], the system named is LAPC9-AI prostate tumor xenografts. Kind of assay: Established LAPC9-AI prostate tumor xenografts in tibiae, monotherapy and combination with Carboplatin. The format is in vivo, SCID mice. Particulars: day 33; MAb 2 mg loading then 1.0 mg i.p. two times a week, 7 doses; Carboplatin 40 mg/kg i.v. days 7, 11, 15, 19, 22, 26; vs control antibody. As for the experimental part:
FIG. 16. […] The tumors were allowed to establish for 7 days, at which time the animals were randomized and assigned to four different groups (n=10 in each group) as indicated in the graph. […] Carboplatin (40 mg/kg) was administered to the mice intravenously (i.v.) on days 7, 11, 15, 19, 22 and 26. On day 33 all mice were sacrificed and the tumors were excised and weighed on an electronic balance.
The tumors were allowed to establish for 7 days, at which time the animals were randomized and assigned to four different groups (n=10 in each group). […] Carboplatin (40 mg/kg) was administered to the mice intravenously (i.v.) on days 7, 11, 15, 19, 22 and 26. On day 33 all mice were sacrificed and the tumors were excised and weighed on an electronic balance.

B1: Ha8-4c4.1: fully human γ1κ monoclonal antibody to 58P1D12 (Ha8-4c4.1 VH & Ha8-4c4.1 VL clone 1-B3); hybridoma ATCC PTA-9404 (antibody, V domains shown)
VH: QVQLQESGPGLVKPSETLSLTCTVSGGSVSSGGYYWSWIRQPPGKGLEWIGYIYYSGGTNYNPSLKSRVTISVDTSKNQFSLKLTSVTAADTAVYYCARESGYCTNVACFPDAFDIWGQGTMVTVSS
VL: DIVMTQSPDSLAVSLGERATINCKSSQGVLYSSNNKNYLAWYQQKPGQPPKLLIYWASTRESGVPDRFSGSGSGTDFTLTISSLQAEDVAVYFCQQYYVSPLTFGGGTKVEIKR
For B1, the “effect on tumor cell invasion (comparison of 58P1D12 MAbs)” value with OVCAR-5/58P1D12 cells is listed as “inhibited tumor cell invasion”. Besides, the “inhibition of cell invasion” value with OVCAR-5/58P1D12 cells (vs isotype matched control MAb, p<0.0001) is listed as 75%. Moreover, the “58P1D12-3T3 (MFI)” value in assay [1] (Ha8-4c4.1 MAb concentration 0.0049 nM) came out at 0; in assay [1] (Ha8-4c4.1 MAb concentration 0.0195 nM), 8; in assay [1] (Ha8-4c4.1 MAb concentration 0.0391 nM), 18; in assay [1] (Ha8-4c4.1 MAb concentration 0.0781 nM) it was 30; in assay [1] (Ha8-4c4.1 MAb concentration 0.156 nM), 58; in assay [1] (Ha8-4c4.1 MAb concentration 0.313 nM) it was 110. Also, the “58P1D12-3T3 (MFI)” value in assay [1] (Ha8-4c4.1 MAb concentration 0.625 nM) was 201; in assay [1] (Ha8-4c4.1 MAb concentration 1.3 nM), 340; in assay [1] (Ha8-4c4.1 MAb concentration 2.5 nM), 558; in assay [1] (Ha8-4c4.1 MAb concentration 5.0 nM), 828; in assay [1] (Ha8-4c4.1 MAb concentration 10 nM), 1052; in assay [1] (Ha8-4c4.1 MAb concentration 20 nM), 1185. Moreover, the “58P1D12-3T3 (MFI)” value in assay [1] (Ha8-4c4.1 MAb concentration 40 nM) is listed as 1167; in assay [1] (Ha8-4c4.1 MAb concentration 80 nM) it was 1198. In the assay on Ovcar5-58P1D12 tumors [2] (500 μg i.p. twice weekly from day 7, Control MAb median 37 days), this molecule showed a median survival of 69 days. Besides, the “increase in median survival” value with Ovcar5-58P1D12 tumors [2] (vs Control MAb, p=0.0066 Logrank test) came to 32 days. In addition, the “inhibition of growth (tumor weight)” value with Ovcar5-58P1D12 tumors [3] amounted to 56%. Besides, the “inhibition of tumor growth (tumor weight)” value in assay [4] is 76%.
